The text below walks through data of the RNAGym collection of RNA variant scans (doi:10.1093/nar/gkz1192).

The labels stand for the following.
B1: CPEB3 Ribozyme (parent)
chain: UAACAGGGGGCCACAGCAGAAGCGUUCACGUCGCAGCCCCUGUCAGAUUCUGGUGAAUCUGCGAAUUCUGCUGUAUAUCUC

The source gives no read counts; variants with many changes may rest on few reads.

In this data set the parent is B1. Put plainly: self-cleavage, relative activity (ratio to wild type); higher = more cleavage; in vitro, sequencing. Summed up: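 Relative activity compares each variant's cleaved/total read fraction with that of the unmutated ribozyme. To get these fractions, barcoded CPEB3 ribozyme libraries from rounds of error-prone PCR were transcribed with T7 RNA polymerase for 5 hours at 37°C and then given 15 min of DNase I treatment before EDTA was added. The RNAs were reverse transcribed with template switching and sequenced on Illumina, and DNA sequencing linked barcodes to variants. A minimum of 5 reads applied, and three batches were averaged.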
Consider C14U U69C U80A, for which the self-cleavage is 0.97.

As for C14A U66C C81G, the self-cleavage stood at 0.97. In the case of A15C A21G U26C G33A U76C it was 0.28. In the case of A15C A35G U51C it was 1.02; in that of C14U A45U A56U A65G, 0.06. Turning to A15C G30A U48G, the self-cleavage was determined as 0.16. Regarding A13U U31G A35U U54C U58C U78C, the self-cleavage was 0.09. A13U U49C U54C: the self-cleavage turned out to be 0.28. With A15C G30A U43C U54C, the self-cleavage turned out to be 0.14. In the case of A15C A45U A57U U66C it was 0.2. In the case of A13U U54C A56U A77U it was 0.89; in that of A13U U31C U76C, 1.17.

Turning to A13U U69C U76A A77G, the self-cleavage was 0.75. For A15G A18C U51A, the self-cleavage came out at 0.52. In the case of C14U U25C A65G U72A it was 0.14; in that of A13U U49C U78C, 0.24. In the case of A15C A35G C40U U43C G46C, the self-cleavage is 0.26. With A13U U41C U67A, the self-cleavage turned out to be 0.88.

On to A13U U41C U67C, for which the self-cleavage was determined as 0.14. In the case of A13U U58C U67C it was 0.4.

Turning to C14U G24U A35U U72A, the self-cleavage came out at 0.07. In the case of A13U U60C A64G A75U U80A it was 0.32. For A15C A35U U49C, the self-cleavage turned out to be 0.15. Take A15C A28G A45U U51A A57G U60A G61U: the self-cleavage stood at 0.08.

Consider A15C U31C U69C, for which the self-cleavage stood at 0.99.

In the case of C14U A20U U51A, the self-cleavage turned out to be 0.34. For A15C A45U U67C U72G, the self-cleavage turned out to be 0.13. For the variant A13U U51A U72C, the self-cleavage stood at 1.16. Turning to A15G A18C U49A A75U, the self-cleavage is 0.43. In the case of A15C U43C U51A it was 0.61; in that of A13U U31C U41C U72C, 0.86. Turning to C14A U41C A45C, the self-cleavage was 0.37. Regarding C14A A45G A56G A64U U72A, the self-cleavage is 0.27. On to A13U U41C A65G U66A, for which the self-cleavage came to 0.29. In the case of A15G A18C U43C U48C, the self-cleavage is 0.04. In the case of A15C A35G G63U U69C U74A it was 0.22; in that of A15C C27A U74G U78A, 0.16; in that of A15G A18G A45G, 0.04. In the case of A15G A18G A45U it was 0.28; in that of A15C A35G U72G U80A, 1.35; in that of A13U U41A G52A U72A U78C, 0.07. In the case of C14U U41C A56G it was 1.22.

As for C14A G19A U43A A56G U69C U76A U80A, the self-cleavage was found to be 0.08. In the case of C14U A15G G52U, the self-cleavage was determined as 1.19. In the case of A13U U31C C40A C44U U69C it was 0.06; in that of A15C U51C U74C, 1.1; in that of C14U U26G U74A, 0.3. In the case of C14A A35U U51A U60A it was 0.16; in that of C14A A15G A56U A77U, 0.62. Consider A15C A45G U54C, for which the self-cleavage worked out at 0.4. In the case of A15G A18G A28G G30C U49C it was 0.21; in that of C14U A18G G46U U67C U74A, 0.03. In the case of A15C U54C A64U C71U it was 0.41. As to C14U U31A A57U U69A, the self-cleavage amounted to 0.09. As for A15C A45G U76A, the self-cleavage was found to be 0.8. In the case of A13U U43A U72C it was 1.12; in that of A15C A20G A28U U60C G70A, 0.15; in that of A13U U49C U66C U69C, 0.12. As for C14G C44U C50A U69C, the self-cleavage came out at 0.11.

Consider A13U U43A A45G G61C U66C, for which the self-cleavage was 0.12.

Consider A15C U26C U43C G53C U58C A64C, for which the self-cleavage stood at 0.2.

Regarding A13U U54C G63U, the self-cleavage was 1.19. In the case of C14A U26A U49C U51G it was 0.42; in that of A13U U60C A65G, 0.35; in that of A15G A18G A45U U49G, 0.07. On to C14U A20G A47U A57G U66C U72A A77G, for which the self-cleavage amounted to 0.03.

As for A15C U54G A75U, the self-cleavage was found to be 0.8. In the case of C14U U54G A57G U80C it was 0.48; in that of A15C C38A A64G, 0.08; in that of C14U A35G A56G C62U A75G U78C, 0.69. In the case of C14A A15C A28G U43C U51A U58C U80A it was 0.07; in that of C14U U43C U78C C79A, 1.21. As for A15C A47U U51A, the self-cleavage came out at 0.36. With C14A A28G A35U, the self-cleavage is 0.3. In the case of C14U G46U A77G it was 0.12; in that of C14U A21G U25C A35G U49C G55U U72C, 0.07. On to C14U U43C U58C U72G, for which the self-cleavage amounted to 0.06. In the case of C14G U31A G33A U60C it was 0.18; in that of C14U A56G U67C, 0.19.

Take A15C A65G U69A: the self-cleavage came out at 0.15. In the case of A15C U41C U66C it was 0.27; in that of A13U U41C U58C, 0.56; in that of C14U A18G A47G A75G, 0.79.

A15C U26A U43A G63A: the self-cleavage amounted to 0.05. Consider C14U A15G U49C U66G, for which the self-cleavage turned out to be 0.28. In the case of A15C U49A U51C U67C U72C it was 0.15; in that of A13U U51G U54G U78C, 0.7; in that of A15C U25C A77G, 0.33.

For A15C C23U U58A A77U, the self-cleavage came out at 0.1. Take C14U C32A G46U: the self-cleavage came to 0.41.

As for A15C U25C U43C A45U U54C, the self-cleavage was 0.05. In the case of A15C C23U G33A A45G it was 0.09. In the case of A13U U41A C62U, the self-cleavage turned out to be 0.17. Turning to A15C A35G U66C, the self-cleavage was 0.96.

As to C14U C40U G70A U72G U80A, the self-cleavage is 0.38. A13U U31C U48C U49A: the self-cleavage was determined as 0.24. In the case of A15G A18C U26C A45C it was 0.15. In the case of A15C G16A C38U A47U U51G A56G it was 0.17; in that of C14A U41C U43C U51A A57U A65G, 0.09; in that of C14A C23U U25A A64U U69C, 0.18. In the case of A13U U31A U49A C68A it was 0.12. As for C14U U26C C68U, the self-cleavage worked out at 0.55. In the case of A13U U43A U51C it was 1.17; in that of A15C A45G U49C U60A, 0.09; in that of C14U A35G G70A U76C, 1.29. In the case of C14U G55C U72A it was 0.33; in that of A15C C27U A57G, 0.07.

As for A15C A35G U43C U60A C81A, the self-cleavage came to 0.74.

With A15C A28G A35G A64G, the self-cleavage amounted to 0.27. As to A15C A21U U66A, the self-cleavage turned out to be 1.11.

Regarding A15C U43C A64G, the self-cleavage was 0.16. As for C14A A15G C40U U43C U51C A64U U80C, the self-cleavage turned out to be 0.1. In the case of A15C A45U A56G it was 0.4. With A15C U25C G33A U72C U76C U80A, the self-cleavage amounted to 0.21. In the case of A15G A18G A28C U43A U54C G55U U69A it was 0.04; in that of C14A U49C U58C U74A, 0.07; in that of A13U U49A G63A U72A, 0.34. Consider A15C U25C A57G U67A, for which the self-cleavage was determined as 0.19. For the variant C14U U43C U76A, the self-cleavage is 0.66. In the case of C14U A47G U48A U67C it was 0.18; in that of A13U U41A U43C U76A, 0.06; in that of A15C A28U U31C U41A A64U C68U, 0.18.

Consider A15C A28U U54C, for which the self-cleavage amounted to 0.22. As to A15C G33C U41A U43A U72G, the self-cleavage stood at 0.08. In the case of C14U A56G U58C it was 0.45; in that of A15C U48C A64U, 0.25; in that of A13U U48C U54C U58A U60A U80C, 0.07. In the case of A15C U31A C59U U74C it was 0.73; in that of C14U U26G A35G A45G U78C, 0.99; in that of C14U U48A U80A, 0.36. As for A15C A21G G33A A35G A64U U76C A77U, the self-cleavage stood at 0.06. In the case of C14U A20G C29A A35C U72C U80C it was 0.15; in that of C14U A20U U66C, 0.12.

Take A13U U67A U78C: the self-cleavage was found to be 0.7. As for A15C U26C U41A U54C A56G U74G, the self-cleavage came out at 0.24.

On to A13U U54C U60C U67C, for which the self-cleavage was 0.19. In the case of A15C U43G U66C U80C it was 0.18; in that of A13U U74C A75U, 1.2; in that of C14G C23A U48C, 0.07. For the variant C14U U49A U72C, the self-cleavage turned out to be 0.89. In the case of A15C A28G A65G U67C A77U it was 0.17; in that of A13U U31A U43A A45C U51A, 0.17; in that of A13U U48C U60C U72A, 0.12.

C14U C32U U43C U72C A77G: the self-cleavage is 0.17. In the case of A13U U60C G61C G63U U78A it was 0.28. For the variant C14U A28G C39U U41A U78C, the self-cleavage is 0.13. Consider A15C U25C C40U U69C, for which the self-cleavage worked out at 0.12. In the case of C14U C59U U74A, the self-cleavage is 1.25. C14G A20G U25C G52U: the self-cleavage was determined as 0.15. In the case of C14A A21G A35U U43G it was 0.05; in that of C14U A20G U25A, 0.16; in that of A13U U43C A56G, 0.28.

On to A13U U43C A64G U66C, for which the self-cleavage turned out to be 0.43. In the case of C14U U58C U78C it was 0.54; in that of A13U U41A A64G, 0.15. For C14A A45G G63C U69C, the self-cleavage came out at 0.5.

In the case of C14A A45G U51C U69A, the self-cleavage amounted to 0.34. As to A13U U41C U54C A65G, the self-cleavage stood at 0.49.

Consider C14U A65G U74C, for which the self-cleavage was found to be 1.07. Regarding A13U U43C U48C, the self-cleavage turned out to be 0.08. Consider A13U U41C A47G U51A U72C, for which the self-cleavage amounted to 1.16. In the case of C14U U51C U69A U78C it was 0.58; in that of A15C U31C A47G U78C, 0.31. C14A A18G A45G C59G G63A U74C: the self-cleavage came to 0.21. In the case of A15C C59A U60C it was 0.14; in that of A15C G22A A47G, 0.07; in that of A13U U72C U80C, 1.32.
